# “And” between values parts separate entries of the source, which are not always exact repeats. Equal values may be shown once. The full ranking holds about 2,900 compounds; the median of “IRF Lucia reporter activity, fold change vs agonist alone” is about 0.9, and the highest 2% start at about 2.8. Some of the results follow.
# Assays:
# RAW-Dual [1] = experiment: IRF Lucia reporter activity, fold change vs agonist alone; cytotoxicity flag (confluency mask): not cytotoxic; higher = enhanced IRF activity
# Method in brief: (§1)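 RAW-Dual macrophages were seeded in DMEM at 50,000 cells/well in 384-well plates, given 50 nL of library stock by pin tool, and given a PRR agonist 1 h later. Plates were held at 37 °C, 5% CO2 for 20 hours, after which supernatant was read for IRF by QuantiLuc luminescence and for NF-κB by QuantiBlue absorbance at 620 nm. Reporter activity is expressed as fold change over wells that received agonist alone. A well was called cytotoxic when IncuCyte confluency fell below 70% of agonist controls in both mask sets.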
# RAW-Dual [2] = experiment: IRF Lucia reporter activity, fold change vs agonist alone; higher = enhanced IRF activity; conditions: cytotoxicity flag (confluency mask): not cytotoxic, agonist: MPLA (TLR4) […]
# Method in brief: as §1
# RAW-Dual [3] = experiment: IRF Lucia reporter activity, fold change vs agonist alone; cytotoxicity flag (confluency mask): cytotoxic (confluency <70% of control); higher = enhanced IRF activity
# Method in brief: as §1
# [4] = agonist: 3'3'-cGAMP (STING) 10 ug/mL
# [5] = library stock concentration (final ~1000-fold dilution): 2 mM
# [6] = library stock concentration (final ~1000-fold dilution): 10 mM
structure (smiles),measurement,setting,value
COc1cc(N2CCC(N3CCN(C)CC3)CC2)ccc1Nc1ncc(Cl)c(Nc2ccccc2S(=O)(=O)C(C)C)n1 (library stock concentration (final ~1000-fold dilution): 2 mM),IRF Lucia reporter activity,RAW-Dual [1]; [4],0.131
same,IRF Lucia reporter activity,RAW-Dual [1]; agonist: LPS (TLR4) 0.1 ug/mL,0.527
COc1cc(N2CCC(N3CCN(C)CC3)CC2)ccc1Nc1ncc(Cl)c(Nc2ccccc2S(=O)(=O)C(C)C)n1,IRF Lucia reporter activity,RAW-Dual [2]; [5],0.851
CC1CCc2cc(F)cc3c(=O)c(C(=O)O)cn1c23 (centres undefined),IRF Lucia reporter activity,RAW-Dual [2]; [6],1.29
CC1CCc2cc(F)cc3c(=O)c(C(=O)O)cn1c23 (centres undefined) (library stock concentration (final ~1000-fold dilution): 10 mM),IRF Lucia reporter activity,RAW-Dual [1]; [4],1.05
same,IRF Lucia reporter activity,RAW-Dual [1]; agonist: LPS (TLR4) 0.1 ug/mL,0.759
CNC(=O)CN1CCC(Oc2cc3c(Nc4cccc(Cl)c4F)ncnc3cc2OC)CC1,IRF Lucia reporter activity,RAW-Dual [2]; [6],0.417
CNC(=O)CN1CCC(Oc2cc3c(Nc4cccc(Cl)c4F)ncnc3cc2OC)CC1 (library stock concentration (final ~1000-fold dilution): 10 mM),IRF Lucia reporter activity,RAW-Dual [1]; [4],0.308
same,IRF Lucia reporter activity,RAW-Dual [1]; agonist: LPS (TLR4) 0.1 ug/mL,0.773
CCCS(=O)(=O)Nc1ccc(F)c(C(=O)c2c[nH]c3ncc(Cl)cc23)c1F (library stock concentration (final ~1000-fold dilution): 10 mM),IRF Lucia reporter activity,RAW-Dual [1]; [4],0.268
same,IRF Lucia reporter activity,RAW-Dual [1]; agonist: LPS (TLR4) 0.1 ug/mL,0.377
CCCS(=O)(=O)Nc1ccc(F)c(C(=O)c2c[nH]c3ncc(Cl)cc23)c1F,IRF Lucia reporter activity,RAW-Dual [2]; [6],0.42
Nc1nc(N)nc(-c2cc(Cl)ccc2Cl)n1,IRF Lucia reporter activity,RAW-Dual [2]; [5],1.23
Nc1nc(N)nc(-c2cc(Cl)ccc2Cl)n1 (library stock concentration (final ~1000-fold dilution): 2 mM),IRF Lucia reporter activity,RAW-Dual [1]; [4],0.925
same,IRF Lucia reporter activity,RAW-Dual [1]; agonist: LPS (TLR4) 0.1 ug/mL,1.02
CCN1CCCC1CNC(=O)c1cc(S(=O)(=O)CC)c(N)cc1OC (centres undefined),IRF Lucia reporter activity,RAW-Dual [2]; [6],0.95
CCN1CCCC1CNC(=O)c1cc(S(=O)(=O)CC)c(N)cc1OC (centres undefined) (library stock concentration (final ~1000-fold dilution): 10 mM),IRF Lucia reporter activity,RAW-Dual [1]; [4],0.951
same,IRF Lucia reporter activity,RAW-Dual [1]; agonist: LPS (TLR4) 0.1 ug/mL,0.924
CCCOc1ccc(CCc2nc3cc(-c4c(C)noc4C)ccc3n2CCN2CCOCC2)cc1.Cl (library stock concentration (final ~1000-fold dilution): 10 mM),IRF Lucia reporter activity,RAW-Dual [1]; [4],0.403
same,IRF Lucia reporter activity,RAW-Dual [1]; agonist: LPS (TLR4) 0.1 ug/mL,0.23
COc1cc(N)c(Cl)cc1C(=O)NC1CCN(Cc2ccccc2)CC1,IRF Lucia reporter activity,RAW-Dual [2]; [6],1.07
COc1cc(N)c(Cl)cc1C(=O)NC1CCN(Cc2ccccc2)CC1 (library stock concentration (final ~1000-fold dilution): 10 mM),IRF Lucia reporter activity,RAW-Dual [1]; [4],0.746
same,IRF Lucia reporter activity,RAW-Dual [1]; agonist: LPS (TLR4) 0.1 ug/mL,0.908
O=S(=O)(NCCN1CCNCC1)c1ccc(NC2CCCCC2)c(NCc2ccccc2)c1 (library stock concentration (final ~1000-fold dilution): 10 mM),IRF Lucia reporter activity,RAW-Dual [3]; [4],0.666
same,IRF Lucia reporter activity,RAW-Dual [3]; agonist: LPS (TLR4) 0.1 ug/mL,1.22
O=C(Nc1cc(Cl)cc2c1[nH]c1cnccc12)c1cccnc1 (library stock concentration (final ~1000-fold dilution): 10 mM),IRF Lucia reporter activity,RAW-Dual [1]; [4],0.176 and 0.235
same,IRF Lucia reporter activity,RAW-Dual [1]; agonist: LPS (TLR4) 0.1 ug/mL,0.283 and 0.265
C[C@@H]1O[C@@H](O[C@@H]2[C@@H](O)[C@H](OCCc3ccc(O)c(O)c3)O[C@H](CO[C@@H]3O[C@H](CO)[C@@H](O)[C@H](O)[C@H]3O)[C@H]2OC(=O)/C=C/c2ccc(O)c(O)c2)[C@H](O)[C@H](O)[C@H]1O (library stock concentration (final ~1000-fold dilution): 10 mM),IRF Lucia reporter activity,RAW-Dual [1]; [4],1.04
same,IRF Lucia reporter activity,RAW-Dual [1]; agonist: LPS (TLR4) 0.1 ug/mL,1.19
Cc1nc(Nc2ccc(F)cc2)nc(N2CCc3ccccc3C2C)c1C.Cl (centres undefined) (library stock concentration (final ~1000-fold dilution): 10 mM),IRF Lucia reporter activity,RAW-Dual [1]; [4],0.465
same,IRF Lucia reporter activity,RAW-Dual [1]; agonist: LPS (TLR4) 0.1 ug/mL,1.25
Cc1nc(Nc2ccc(F)cc2)nc(N2CCc3ccccc3C2C)c1C.Cl (centres undefined),IRF Lucia reporter activity,RAW-Dual [2]; [6],1.59
CN1CCN(c2ccc(C(=O)Nc3n[nH]c4ccc(Cc5cc(F)cc(F)c5)cc34)c(NC3CCOCC3)c2)CC1 (library stock concentration (final ~1000-fold dilution): 10 mM),IRF Lucia reporter activity,RAW-Dual [3]; [4],0.032
same,IRF Lucia reporter activity,RAW-Dual [3]; agonist: LPS (TLR4) 0.1 ug/mL,0.0438
CN1C(=N)NC(C)(c2cc(NC(=O)c3ccc(F)cn3)ccc2F)CS1(=O)=O.O=C(O)C(F)(F)F (centres undefined) (library stock concentration (final ~1000-fold dilution): 10 mM),IRF Lucia reporter activity,RAW-Dual [1]; [4],0.974
same,IRF Lucia reporter activity,RAW-Dual [1]; agonist: LPS (TLR4) 0.1 ug/mL,0.998
CS(=O)(=O)c1ccc(Oc2cc(F)cc(C#N)c2)c2c1C(O)C(F)(F)C2 (centres undefined) (library stock concentration (final ~1000-fold dilution): 10 mM),IRF Lucia reporter activity,RAW-Dual [1]; [4],0.969
same,IRF Lucia reporter activity,RAW-Dual [1]; agonist: LPS (TLR4) 0.1 ug/mL,1.08
COc1ccc2[nH]c(S(=O)Cc3ncc(C)c(OC)c3C)nc2n1 (centres undefined) (library stock concentration (final ~1000-fold dilution): 10 mM),IRF Lucia reporter activity,RAW-Dual [1]; [4],1.07
same,IRF Lucia reporter activity,RAW-Dual [1]; agonist: LPS (TLR4) 0.1 ug/mL,1.22
COc1ccc2[nH]c(S(=O)Cc3ncc(C)c(OC)c3C)nc2n1 (centres undefined),IRF Lucia reporter activity,RAW-Dual [2]; [6],1.16
O=C(Nc1cccc(Cl)c1)Nc1ncc(CCNc2ncnc3ccsc23)s1 (library stock concentration (final ~1000-fold dilution): 10 mM),IRF Lucia reporter activity,RAW-Dual [1]; [4],0.242
same,IRF Lucia reporter activity,RAW-Dual [1]; agonist: LPS (TLR4) 0.1 ug/mL,0.383
C=C(C)C1CCC2(C(=O)OC3OC(COC4OC(CO)C(OC5OC(C)C(O)C(O)C5O)C(O)C4O)C(O)C(O)C3O)CCC3(C)C(CCC4C5(C)CCC(OC6OCC(O)C(O)C6OC6OC(C)C(O)C(O)C6O)C(C)(CO)C5CCC43C)C12 (centres undefined) (library stock concentration (final ~1000-fold dilution): 2 mM),IRF Lucia reporter activity,RAW-Dual [1]; [4],0.987
same,IRF Lucia reporter activity,RAW-Dual [1]; agonist: LPS (TLR4) 0.1 ug/mL,1.05
Nc1ncnc2c1c(-c1cccc(OCc3ccccc3)c1)cn2C1CC(CN2CCCC2)C1 (centres undefined),IRF Lucia reporter activity,RAW-Dual [2]; [6],0.0632
Nc1ncnc2c1c(-c1cccc(OCc3ccccc3)c1)cn2C1CC(CN2CCCC2)C1 (centres undefined) (library stock concentration (final ~1000-fold dilution): 10 mM),IRF Lucia reporter activity,RAW-Dual [1]; [4],0.0506
same,IRF Lucia reporter activity,RAW-Dual [1]; agonist: LPS (TLR4) 0.1 ug/mL,0.0306
CCCC(NC(=O)C1C2CCCC2CN1C(=O)C(NC(=O)C(NC(=O)c1cnccn1)C1CCCCC1)C(C)(C)C)C(=O)C(=O)NC1CC1 (centres undefined) (library stock concentration (final ~1000-fold dilution): 10 mM),IRF Lucia reporter activity,RAW-Dual [1]; [4],1.07
same,IRF Lucia reporter activity,RAW-Dual [1]; agonist: LPS (TLR4) 0.1 ug/mL,1.05
CCCC(NC(=O)C1C2CCCC2CN1C(=O)C(NC(=O)C(NC(=O)c1cnccn1)C1CCCCC1)C(C)(C)C)C(=O)C(=O)NC1CC1 (centres undefined),IRF Lucia reporter activity,RAW-Dual [2]; [6],1.07
COc1cc2ncnc(Nc3cc(Br)c(O)c(Br)c3)c2cc1OC (library stock concentration (final ~1000-fold dilution): 10 mM),IRF Lucia reporter activity,RAW-Dual [1]; [4],0.594
same,IRF Lucia reporter activity,RAW-Dual [1]; agonist: LPS (TLR4) 0.1 ug/mL,0.688
COc1cc2ncnc(Nc3cc(Br)c(O)c(Br)c3)c2cc1OC,IRF Lucia reporter activity,RAW-Dual [2]; [6],0.707
